Test results as given in the supplement of paper PMC4604168 (melanoma cell lines).
The other results are listed elsewhere or left out. Repeats are few or missing, and single values can be far off.

How the values were obtained:
Experiment in all cases: cell count relative to DMSO control; melanoma cells; higher = more viable cells
Details in all cases: library dose: standard library concentration; 72 h
G361 = test system: G361
IPC-298 = test system: IPC-298
IST-MEL1 = test system: IST-MEL1
LB2518-MEL = test system: LB2518-MEL
LOXIMVI = test system: LOXIMVI
MEL-HO = test system: MEL-HO
MZ2-MEL = test system: MZ2-MEL
MeWo = test system: MeWo
RPMI7951 = test system: RPMI7951
RVH-421 = test system: RVH-421
SkMel28 = test system: SkMel28
SkMel2 = test system: SkMel2
SkMel30 = test system: SkMel30
SkMel5 = test system: SkMel5
UACC257 = test system: UACC257
UACC62 = test system: UACC62
WM115 = test system: WM115
WM1716 = test system: WM1716
WM1745 = test system: WM1745
WM3526 = test system: WM3526
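Note: cells treated in 1,536-well plates, then fixed and DAPI-stained, with nuclei counted from automated high-throughput microscope images.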

SMILES: N.N.[Cl][Pt][Cl] [cisplatin] + CC(C)(C)c1cnc(CSc2cnc(NC(=O)C3CCNCC3)s2)o1 [SNS-032] (first compound 8 µM, partner dose 0.05 µM)
- cell count (G361): 118%
- cell count (IPC-298): 109%
- cell count (IST-MEL1): 96.9%
- cell count (LB2518-MEL): 93.3%
- cell count (LOXIMVI): 75.9%
- cell count (MEL-HO): 86.9%
- cell count (MZ2-MEL): 115%
- cell count (MeWo): 98.8%
- cell count (RPMI7951): 91.2%
- cell count (RVH-421): 69.4%
- cell count (SkMel28): 80.7%
- cell count (SkMel2): 94.1%
- cell count (SkMel30): 88.6%
- cell count (SkMel5): 80.1%
- cell count (UACC257): 81.2%
- cell count (UACC62): 73.5%
- cell count (WM115): 78.6%
- cell count (WM1716): 82%
- cell count (WM1745): 98.1%
- cell count (WM3526): 82.1%

SMILES: C[As](C)SC[C@H](NC(=O)CC[C@H](N)C(=O)O)C(=O)NCC(=O)O [Darinaparsin] + NC(=O)Nc1cc(-c2cccc(F)c2)sc1C(=O)N[C@H]1CCCNC1 [AZD7762] (first compound 2 µM, partner dose 0.1 µM)
- cell count (G361): 75.3%
- cell count (IPC-298): 83.5%
- cell count (IST-MEL1): 91.6%
- cell count (LB2518-MEL): 62.5%
- cell count (LOXIMVI): 69.2%
- cell count (MEL-HO): 79.9%
- cell count (MZ2-MEL): 97.8%
- cell count (MeWo): 61.3%
- cell count (RPMI7951): 27.8%
- cell count (RVH-421): 101%
- cell count (SkMel28): 33.3%
- cell count (SkMel2): 81.7%
- cell count (SkMel30): 84.6%
- cell count (SkMel5): 62.7%
- cell count (UACC257): 84.8%
- cell count (UACC62): 69.5%
- cell count (WM115): 65.9%
- cell count (WM1716): 45.1%
- cell count (WM1745): 61.8%
- cell count (WM3526): 53.4%

SMILES: C[As](C)SC[C@H](NC(=O)CC[C@H](N)C(=O)O)C(=O)NCC(=O)O [Darinaparsin] + COc1cc(Nc2ncc(F)c(Nc3ccc4c(n3)NC(=O)C(C)(C)O4)n2)cc(OC)c1OC [Tamatinib] (first compound 2 µM, partner dose 2 µM)
- cell count (G361): 72.5%
- cell count (IPC-298): 93.5%
- cell count (IST-MEL1): 46.6%
- cell count (LB2518-MEL): 87.6%
- cell count (LOXIMVI): 42.3%
- cell count (MEL-HO): 75.7%
- cell count (MZ2-MEL): 78.7%
- cell count (MeWo): 68.7%
- cell count (RPMI7951): 44.4%
- cell count (RVH-421): 93.4%
- cell count (SkMel28): 87.8%
- cell count (SkMel2): 85%
- cell count (SkMel30): 90.3%
- cell count (SkMel5): 56.5%
- cell count (UACC257): 78.5%
- cell count (UACC62): 98.1%
- cell count (WM115): 77.6%
- cell count (WM1716): 74.2%
- cell count (WM1745): 41.3%
- cell count (WM3526): 70.9%

SMILES: Cn1cc(C2=C(c3cn(C4CCN(Cc5ccccn5)CC4)c4ccccc34)C(=O)NC2=O)c2ccccc21 [Enzastaurin] + CNC(=O)c1cc(Oc2ccc(NC(=O)Nc3ccc(Cl)c(C(F)(F)F)c3)cc2)ccn1 [sorafenib] (first compound 4 µM, partner dose 2 µM)
- cell count (G361): 67.8%
- cell count (IPC-298): 83.6%
- cell count (IST-MEL1): 75.8%
- cell count (LB2518-MEL): 60.6%
- cell count (LOXIMVI): 120%
- cell count (MEL-HO): 84.1%
- cell count (MZ2-MEL): 107%
- cell count (MeWo): 72.5%
- cell count (RPMI7951): 48.7%
- cell count (RVH-421): 64.2%
- cell count (SkMel28): 97.2%
- cell count (SkMel2): 57.3%
- cell count (SkMel30): 84.9%
- cell count (SkMel5): 81.5%
- cell count (UACC257): 74.5%
- cell count (UACC62): 94.7%
- cell count (WM115): 92.6%
- cell count (WM1716): 68.6%
- cell count (WM1745): 59.2%
- cell count (WM3526): 104%

SMILES: C[As](C)SC[C@H](NC(=O)CC[C@H](N)C(=O)O)C(=O)NCC(=O)O [Darinaparsin] + CCc1ccc(CCOc2ccc(CC3SC(=O)NC3=O)cc2)nc1 [pioglitazone] (first compound 2 µM, partner dose 10 µM)
- cell count (G361): 74.4%
- cell count (IPC-298): 97.5%
- cell count (IST-MEL1): 85.2%
- cell count (LB2518-MEL): 86.2%
- cell count (LOXIMVI): 73.3%
- cell count (MEL-HO): 91.3%
- cell count (MZ2-MEL): 114%
- cell count (MeWo): 81.2%
- cell count (RPMI7951): 66%
- cell count (RVH-421): 97%
- cell count (SkMel28): 69%
- cell count (SkMel2): 79.5%
- cell count (SkMel30): 77.6%
- cell count (SkMel5): 50.8%
- cell count (UACC257): 77.1%
- cell count (UACC62): 86.3%
- cell count (WM115): 78.3%
- cell count (WM1716): 63.5%
- cell count (WM1745): 89.7%
- cell count (WM3526): 83.8%

SMILES: C[C@]12O[C@H](C[C@]1(O)CO)n1c3ccccc3c3c4c(c5c6ccccc6n2c5c31)CNC4=O [Lestaurtinib] + COCC[n+]1c2c(n(Cc3cnccn3)c1C)C(=O)c1ccccc1C2=O [YM155] (first compound 0.02 µM, partner dose 0.002 µM)
- cell count (G361): 78.6%
- cell count (IPC-298): 56.8%
- cell count (IST-MEL1): 60.6%
- cell count (LB2518-MEL): 34.4%
- cell count (LOXIMVI): 50.3%
- cell count (MEL-HO): 87.6%
- cell count (MZ2-MEL): 31%
- cell count (MeWo): 53.4%
- cell count (RPMI7951): 41.2%
- cell count (RVH-421): 74.8%
- cell count (SkMel28): 46.5%
- cell count (SkMel2): 58.5%
- cell count (SkMel30): 63.5%
- cell count (SkMel5): 49.2%
- cell count (UACC257): 32%
- cell count (UACC62): 63.8%
- cell count (WM115): 58%
- cell count (WM1716): 61.5%
- cell count (WM1745): 84.1%
- cell count (WM3526): 43.9%

SMILES: Cn1cc(C2=C(c3cn(C4CCN(Cc5ccccn5)CC4)c4ccccc34)C(=O)NC2=O)c2ccccc21 [Enzastaurin] + Nc1ncn([C@H]2C[C@H](O)[C@@H](CO)O2)c(=O)n1 [decitabine] (first compound 4 µM, partner dose 0.5 µM)
- cell count (G361): 81.6%
- cell count (IPC-298): 74.4%
- cell count (IST-MEL1): 68.4%
- cell count (LB2518-MEL): 52.9%
- cell count (LOXIMVI): 71.2%
- cell count (MEL-HO): 89.9%
- cell count (MZ2-MEL): 94.5%
- cell count (MeWo): 99.2%
- cell count (RPMI7951): 33.3%
- cell count (RVH-421): 25.3%
- cell count (SkMel28): 66.2%
- cell count (SkMel2): 59.5%
- cell count (SkMel30): 120%
- cell count (SkMel5): 87.2%
- cell count (UACC257): 85.9%
- cell count (UACC62): 61.5%
- cell count (WM115): 118%
- cell count (WM1716): 57.5%
- cell count (WM1745): 53.9%
- cell count (WM3526): 89.8%

SMILES: C[C@]12O[C@H](C[C@]1(O)CO)n1c3ccccc3c3c4c(c5c6ccccc6n2c5c31)CNC4=O [Lestaurtinib] + COc1cc(Nc2ncc(F)c(Nc3ccc4c(n3)NC(=O)C(C)(C)O4)n2)cc(OC)c1OC [Tamatinib] (first compound 0.02 µM, partner dose 2 µM)
- cell count (G361): 79.2%
- cell count (IPC-298): 94.3%
- cell count (IST-MEL1): 63.9%
- cell count (LB2518-MEL): 85.8%
- cell count (LOXIMVI): 35.6%
- cell count (MEL-HO): 79.9%
- cell count (MZ2-MEL): 105%
- cell count (MeWo): 67.5%
- cell count (RPMI7951): 35.9%
- cell count (RVH-421): 135%
- cell count (SkMel28): 99.1%
- cell count (SkMel2): 87.3%
- cell count (SkMel30): 126%
- cell count (SkMel5): 51.8%
- cell count (UACC257): 86.1%
- cell count (UACC62): 100%
- cell count (WM115): 85.2%
- cell count (WM1716): 87.9%
- cell count (WM1745): 47.1%
- cell count (WM3526): 84.7%
